Measured values from the antibiotic and cytotoxicity screens of Wong et al. (2023).
The other results are listed elsewhere or left out.

Assays:
HSkMC = human skeletal muscle cells; assay: cytotoxicity call (relative viability < 0.9); conditions: 10 µM
HepG2 = assay: cytotoxicity call (relative viability < 0.9); conditions: 10 µM
S. aureus RN4220 = assay: growth inhibition call (relative growth <= 0.2); conditions: 50 µM

Row | Compound | cytotoxicity call (HSkMC) | cytotoxicity call (HepG2) | growth inhibition call (S. aureus RN4220)
1 | Cc1cc(C)n(C)c(=O)c1C(=O)O | inactive | inactive | inactive
2 | Cn1cnc(S(=O)(=O)N2C[C@H](O)COC[C@H]3O[C@H](CC(=O)NC4CCC4)CC[C@@H]32)c1 | inactive | inactive | inactive
3 | CCNC(=O)C[C@H]1CC[C@@H]2[C@H](COC[C@H](O)CN2C(=O)Nc2c(C)noc2C)O1 | inactive | inactive | inactive
4 | C[C@@H]1CCCCO[C@H](CN(C)S(=O)(=O)c2ccc(F)cc2)[C@H](C)CN([C@H](C)CO)C(=O)c2cc(NC(=O)NC3CCCCC3)ccc2O1 | inactive | inactive | inactive
5 | C[C@H]1CCCCO[C@H](CN(C)C(=O)Nc2ccccc2)[C@@H](C)CN([C@@H](C)CO)C(=O)c2cc(NS(=O)(=O)c3ccccc3)ccc2O1 | inactive | inactive | inactive
6 | CN(C)CCCN1c2ccccc2CCc2ccccc21.Cl | inactive | active | inactive
7 | COc1ccc2c3c([nH]c2c1)[C@H](CO)N(Cc1nccs1)C[C@]13CCN(CC1)C(=O)C1CCOCC1 | inactive | inactive | inactive
8 | C[C@H]1CN([C@@H](C)CO)C(=O)c2cc(NC(=O)Nc3cccc4ccccc34)ccc2O[C@H]1CN(C)Cc1ccc(C(F)(F)F)cc1 | active | inactive | inactive
9 | C[C@@H]1CN([C@H](C)CO)C(=O)c2cc(NC(=O)NC3CCCCC3)ccc2O[C@@H](C)CCCCO[C@@H]1CN(C)C(=O)c1ccncc1 | inactive | inactive | inactive
10 | Cc1nnc(NS(=O)(=O)c2ccc(N)cc2)s1 | inactive | inactive | inactive
11 | C[C@H](CO)N1C[C@H](C)[C@@H](CN(C)S(C)(=O)=O)Oc2c(cccc2N(C)C)C1=O | inactive | inactive | inactive
12 | CC(C)NC(=O)N(C)C[C@@H]1OCc2cnnn2CCCC(=O)N([C@@H](C)CO)C[C@@H]1C | inactive | inactive | inactive
13 | C[C@H](CO)N1C[C@H](C)[C@@H](CN(C)Cc2ccc(Cl)c(Cl)c2)Oc2ccc(NC(=O)CCC(F)(F)F)cc2C1=O | inactive | inactive | inactive
14 | C[C@H](CO)N1C[C@H](C)[C@@H](CN(C)Cc2ccc(C(=O)O)cc2)OCCCC[C@H](C)Oc2ccc(NC(=O)Nc3ccccc3)cc2C1=O | inactive | inactive | inactive
15 | COc1ccc(S(=O)(=O)N(C)C[C@@H]2OCc3cnnn3CCCC(=O)N([C@H](C)CO)C[C@@H]2C)cc1 | inactive | inactive | inactive
16 | CN1CCN(C(=O)C[C@H]2CC[C@@H]3[C@@H](COc4ccc(NC(=O)C5CCOCC5)cc4C(=O)N3C)O2)CC1 | inactive | inactive | inactive
17 | Cc1noc(C)c1S(=O)(=O)N(C)C[C@@H]1Oc2ccc(NS(=O)(=O)c3ccc(Cl)cc3)cc2CC(=O)N([C@H](C)CO)C[C@@H]1C | inactive | inactive | inactive
18 | Cc1ccc(S(=O)(=O)Nc2ccc3c(c2)CC(=O)N([C@@H](C)CO)C[C@H](C)[C@H](CN(C)S(C)(=O)=O)O3)cc1 | inactive | inactive | inactive
19 | C[C@@H]1CN([C@@H](C)CO)C(=O)c2cccc(NS(=O)(=O)c3ccc(Cl)cc3)c2O[C@@H]1CN(C)S(=O)(=O)c1cn(C)cn1 | inactive | inactive | inactive
20 | Cc1c(C(N)=O)cc([N+](=O)[O-])cc1[N+](=O)[O-] | inactive | inactive | inactive
21 | CN(C)C(=O)C[C@@H]1C=C[C@H](NC(=O)C2CC2)[C@H](CO)O1 | inactive | inactive | inactive
22 | COc1ccc(CN(C)C[C@H]2Oc3ccc(NC(=O)Cn4cnnn4)cc3C(=O)N([C@@H](C)CO)C[C@H]2C)cc1 | inactive | inactive | inactive

Row | Compound | cytotoxicity call (HSkMC) | cytotoxicity call (HepG2) | growth inhibition call (S. aureus RN4220)
23 | COc1ccc([Si](C)(C)[C@@H]2[C@@H](CCn3cc([C@H](O)c4ccccc4)nn3)O[C@]3(C(=O)N(Cc4cccc(N5C(=O)c6cccc7cccc5c67)c4)c4ccccc43)[C@H]2C)cc1 | inactive | inactive | inactive
24 | COc1ccc(CN(C)C[C@H]2Oc3ccc(NS(=O)(=O)c4c(C)noc4C)cc3CC(=O)N([C@@H](C)CO)C[C@@H]2C)cc1 | inactive | inactive | inactive
25 | CN(C)c1nc(N(C)C)nc(N(C)C)n1 | inactive | inactive | inactive
26 | C[C@H](CO)N1C[C@H](C)[C@H](CN(C)Cc2ccc(C(F)(F)F)cc2)Oc2ccc(NC(=O)C3CCCCC3)cc2C1=O | inactive | inactive | inactive
27 | C[C@H](CO)N1C[C@H](C)[C@@H](CN(C)S(=O)(=O)c2cn(C)cn2)Oc2ccc(NC(=O)CCCN(C)C)cc2C1=O | inactive | inactive | inactive
28 | CO[C@@H]1CN(C)C(=O)c2cc(NS(=O)(=O)CC(F)(F)F)ccc2OC[C@H](C)N(C(=O)NC(C)C)C[C@@H]1C | inactive | inactive | inactive
29 | C[C@@H]1CN([C@H](C)CO)S(=O)(=O)c2ccc(-c3cccnc3)cc2O[C@@H]1CN(C)CC1CCOCC1 | inactive | inactive | inactive
30 | C=C1O[C@@](CO)(n2cnc3c(N)ncnc32)[C@H](O)[C@@H]1O | inactive | inactive | inactive
31 | C[C@@H]1CN([C@H](C)CO)C(=O)c2cc(NC(=O)Nc3ccc(F)cc3)ccc2O[C@@H](C)CCCCO[C@H]1CN(C)C(=O)Nc1ccccc1 | inactive | inactive | inactive
32 | COc1cccc(-c2cccc(-c3nc(C(=O)N[C@@H]4CCN(Cc5ccccc5)C4)cc4c3[C@H](CCO)N(S(=O)C(C)(C)C)C4)c2)c1 (some centres undefined) | inactive | inactive | inactive
33 | C[C@H]1CN([C@@H](C)CO)C(=O)c2cccc(NS(C)(=O)=O)c2O[C@@H]1CN(C)C(=O)Nc1ccc(C(F)(F)F)cc1 | inactive | inactive | inactive
34 | C[C@@H]1CN([C@@H](C)CO)C(=O)Cc2cc(NS(=O)(=O)c3cn(C)cn3)ccc2O[C@H]1CN(C)S(=O)(=O)c1cccs1 | inactive | inactive | inactive
35 | CO[C@@H]1[C@@H](O[C@@H]2O[C@H](C)[C@@H](O[C@H]3C[C@@](C)(O)[C@@H](O)[C@H](C)O3)[C@H](N(C)C)[C@H]2O)[C@@H](CC=O)C[C@@H](C)[C@@H](O[C@H]2CC[C@H](N(C)C)[C@@H](C)O2)/C=C/C=C/CC(C)OC(=O)C[C@H]1OC(C)=O (some centres undefined) | inactive | inactive | inactive
36 | C[C@@H]1CCCCO[C@H](CN(C)C(=O)Nc2ccccc2)[C@H](C)CN([C@H](C)CO)C(=O)c2cc(NC(=O)Nc3ccc(F)cc3)ccc2O1 | inactive | inactive | inactive
37 | CNS(=O)(=O)Cc1ccc2[nH]cc(CCN(C)C)c2c1 | inactive | inactive | inactive
38 | C[C@@H]1CN([C@H](C)CO)C(=O)c2cccc(NS(=O)(=O)c3cn(C)cn3)c2O[C@H]1CN(C)S(=O)(=O)c1ccccc1 | inactive | inactive | inactive
39 | O=C(OC[C@H]1O[C@@H](OC(=O)c2cc(O)c(O)c(O)c2)[C@H](O)[C@@H](OC(=O)c2cc(O)c(O)c(O)c2)[C@@H]1O)c1cc(O)c(O)c(O)c1 | inactive | active | inactive
40 | COc1ccc(-c2oc3c(CC=C(C)C)c(O[C@@H]4O[C@H](CO)[C@@H](O)[C@H](O)[C@H]4O)cc(O)c3c(=O)c2O[C@@H]2O[C@@H](C)[C@H](O)[C@@H](O)[C@H]2O)cc1 | active | inactive | inactive
41 | C[C@H](CO)N1C[C@H](C)[C@@H](CN(C)Cc2ccc3c(c2)OCO3)Oc2ncc(C#CCN(C)C)cc2C1=O | inactive | inactive | inactive
42 | COc1ccc(CN(C)C[C@H]2OCCCC[C@H](C)Oc3ccc(NS(=O)(=O)c4c(C)noc4C)cc3C(=O)N([C@@H](C)CO)C[C@@H]2C)cc1 | inactive | inactive | inactive
43 | Cc1cc(N)no1 | inactive | inactive | inactive
